The results in this text go back to PMC7819943, “Rice protein-binding microarrays: a tool to detect cis-acting elements near promoter regions in rice”.

This is one part of the list.

The test has as its target T1, OsWOX13 (Oryza sativa, UniProt Q5QMM3 1-267).
T1 sequence: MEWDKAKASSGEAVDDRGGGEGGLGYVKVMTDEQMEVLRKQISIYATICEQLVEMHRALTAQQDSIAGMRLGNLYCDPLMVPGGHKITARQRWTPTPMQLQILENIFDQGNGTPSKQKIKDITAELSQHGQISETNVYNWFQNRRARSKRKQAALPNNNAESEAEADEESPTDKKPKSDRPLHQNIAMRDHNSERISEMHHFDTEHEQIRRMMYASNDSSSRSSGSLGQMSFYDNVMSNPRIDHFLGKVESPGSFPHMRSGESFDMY
Nature of the test: protein-binding microarray (RPBM); PBS, 2% BSA, 51.3 ng/ul salmon testes DNA, 50 uM zinc acetate, 200 nM TF, 25 C, 1 h; high values mean tight binding. The following applies: protein: recombinant; tags: N-terminal polyhistidine and DsRed monomer fusion (pET32a); label: CyDye5-dUTP incorporated in the synthesized complementary strand; 3' TTTTT single-stranded linker to array surface; dsDNA, one strand shown. The procedure, abridged:
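Transcription factors were each fused at the N-terminus to a polyhistidine tag plus DsRed and expressed in E. coli BL21-CodonPlus before Ni–NTA purification. Binding to a double-stranded custom Agilent array was carried out with 200 nM protein at 25 °C for 1 h in PBS, 2% BSA, salmon testes DNA and 50 µM zinc acetate. The binding signal is per-feature fluorescence intensity, in arbitrary units, on an Axon 4000B scanner.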
“CAACCAACCACCAGAGGTGATTGACGAAGGATCGAGATCGCGGAGTCACCTAGTGCAG”: the binding signal is 23600 fluorescence intensity (a.u.). In the case of “TATGATGGTCCAATTAAGCTTGAGATCGATAGCGAGCTATCGGAGTCACCTAGTGCAG”, the binding signal is 5490 fluorescence intensity (a.u.). For the sequence “TTTTGTGATTAAATTGTTATCAAATCTACAATTTTATGATCGGAGTCACCTAGTGCAG”, the binding signal was 19800 fluorescence intensity (a.u.).

On to “AAGAAATTATTAGTGTATGATTAATTAAGTTTCAATTATTCGGAGTCACCTAGTGCAG”, for which the binding signal was 19200 fluorescence intensity (a.u.). The result for “TTTAGTGATAAATTCTTAATTATTAATAGTAAGTGTGACACGGAGTCACCTAGTGCAG” reads 10900 fluorescence intensity (a.u.); that for “CATAATTATCCAAATTTACCACCCATCAACATCAAGAGAACGGAGTCACCTAGTGCAG”, 22000 fluorescence intensity (a.u.).

Turning to “CAATGATTGTATGACAGGTGGGACCATGCATTAATAATGTCGGAGTCACCTAGTGCAG”, the binding signal is 46000 fluorescence intensity (a.u.). On to “TCTCTTTCTAAAGAAGTCAATCAGTCAATCTGGACCGTCCCGGAGTCACCTAGTGCAG”, for which the binding signal is 5610 fluorescence intensity (a.u.). As to “CGATCAATCTCTCTTTATTTATTTGCAGATCGATCAACCTCGGAGTCACCTAGTGCAG”, the binding signal was 5760 fluorescence intensity (a.u.). Turning to “GGCTACTTTCTTTTCTGATTAATATGTAGATTTATCTCGGCGGAGTCACCTAGTGCAG”, the binding signal was 3770 fluorescence intensity (a.u.). For “TTTTCTAATCATCAGACATTAGTGTTCGTTTTGCTCTAGACGGAGTCACCTAGTGCAG” the value was 8020 fluorescence intensity (a.u.); for “TCAACGTGAGGGTAATTGGCGCTGACATCCTTGCCATGTCCGGAGTCACCTAGTGCAG”, 6010 fluorescence intensity (a.u.); for “CTACAGCCTAATTAATCCATAATCTAAACCGGGTCTTAGGCGGAGTCACCTAGTGCAG”, 7980 fluorescence intensity (a.u.). For “ATCTAAATGTGTTGATAGAGGGCTGCAAGGAGATGAAGTGCGGAGTCACCTAGTGCAG” the value was 6660 fluorescence intensity (a.u.); for “TTACCATAGTTGATTTGTGTTGGTCTGTAGTCCTGGCACACGGAGTCACCTAGTGCAG”, 5010 fluorescence intensity (a.u.). In the case of “TAAATTTACTATCACTGATTTAACCTATAGATGGGCTCACCGGAGTCACCTAGTGCAG”, the binding signal is 16600 fluorescence intensity (a.u.).

For the sequence “TTTTGCAATGTGATTTGCTGGTTTGGATAGTGGAGAAGTTCGGAGTCACCTAGTGCAG”, the binding signal is 3300 fluorescence intensity (a.u.). For the sequence “ACTGATGGTAAATTTTCTATGAAGACCATTTGTAAAACCTCGGAGTCACCTAGTGCAG”, the binding signal was 8380 fluorescence intensity (a.u.). For the sequence “TCCAATCAAACGACCATTCCTGTGTTTTGCAATCCTCTGTCGGAGTCACCTAGTGCAG”, the binding signal is 3300 fluorescence intensity (a.u.). With “TTAAATTTAGAAATGATTTCAATGTCGGTTTCATTGCAGTCGGAGTCACCTAGTGCAG”, the binding signal was 22800 fluorescence intensity (a.u.). On to “ACTGTGATAGAGATAGACAGCAGCTTGAGCCGGCCGCTGGCGGAGTCACCTAGTGCAG”, for which the binding signal was 29300 fluorescence intensity (a.u.). For “CAGAAACGTAATTAGATTCGGTTAATTAAGCGCCGATATACGGAGTCACCTAGTGCAG”, the binding signal is 28200 fluorescence intensity (a.u.). In the case of “TGTGATGGAACAGAGTGACAATTAATGCACATGTAATAGCCGGAGTCACCTAGTGCAG”, the binding signal was 14200 fluorescence intensity (a.u.). On to “CTTTGATCAATGTTAGATTTAATAAAATTGATTTGGTGGTCGGAGTCACCTAGTGCAG”, for which the binding signal was 18900 fluorescence intensity (a.u.). Turning to “GCTTACTCACTAATTTTATCTATAAATGGATTCTCCGGGTCGGAGTCACCTAGTGCAG”, the binding signal is 5050 fluorescence intensity (a.u.). On to “ACTTAATGAGTGGACACAAAACCATATCCTCTAGCAAGATCGGAGTCACCTAGTGCAG”, for which the binding signal was 5240 fluorescence intensity (a.u.). Take “GCCCCTGAATTGACAAGTATTCTCCATTTGGGCCACTGTTCGGAGTCACCTAGTGCAG”: the binding signal is 10600 fluorescence intensity (a.u.). Take “AAGTTTGATTAAAATTGGAACGATGTGATGGAAAAGTTAGCGGAGTCACCTAGTGCAG”: the binding signal was 17300 fluorescence intensity (a.u.). As for “TTAGGGACATAAATTGATCTTGTTTTAATAGTTTGGGATGCGGAGTCACCTAGTGCAG”, the binding signal is 4650 fluorescence intensity (a.u.). The result for “GGGGAGATAGAGAAGATTAGGAAGATACGCAAAACGAGGTCGGAGTCACCTAGTGCAG” reads 5680 fluorescence intensity (a.u.); that for “CCTCCATCATGAGCTCCAATTAGCCGCACACCGATCCCCTCGGAGTCACCTAGTGCAG”, 6160 fluorescence intensity (a.u.). With “CCTCTATTACCGCCTGTCATCTGGGCCCACGCTAATACCGCGGAGTCACCTAGTGCAG”, the binding signal is 5320 fluorescence intensity (a.u.). As for “TCCCATTGATTTGATCCAGCTAATTAATTAATTCGATCCACGGAGTCACCTAGTGCAG”, the binding signal was 49900 fluorescence intensity (a.u.). For “CTTTCATTTATATAATTAGTTTTATAAGTAGTCTATATTTCGGAGTCACCTAGTGCAG” the value was 4950 fluorescence intensity (a.u.); for “AATGATGACATGATATTAAGTTGATGCATGGAAAACAAGACGGAGTCACCTAGTGCAG”, 5030 fluorescence intensity (a.u.). In the case of “TATTAAATTTGTAGTTTTATGATACTTAGCCTTAAACGTACGGAGTCACCTAGTGCAG”, the binding signal was 8070 fluorescence intensity (a.u.). For the sequence “TGCATGAAATTGGGCTATCCAATTAGCTTGTTGTTTGCTTCGGAGTCACCTAGTGCAG”, the binding signal was 3180 fluorescence intensity (a.u.). For “ATCACCAGAAGCGTACAGATTAATTAATCATTTTCTCGATCGGAGTCACCTAGTGCAG”, the binding signal was 4160 fluorescence intensity (a.u.). For “TGATTAATTGTCTCATTGTTCAGCCAATCAACGGTACAAGCGGAGTCACCTAGTGCAG” the value was 35600 fluorescence intensity (a.u.). With “AAGTAAAATTCATGTCAAATTTGATATCCATGTTCAATAGCGGAGTCACCTAGTGCAG”, the binding signal was 3390 fluorescence intensity (a.u.). On to “GACAACAATCTAAAATTTACAAATTTTCTCAGGTTTTACTCGGAGTCACCTAGTGCAG”, for which the binding signal was 8350 fluorescence intensity (a.u.).

“CACTAAATGGGCTAGATTTGACTGGGCCGATGCGGAGCCACGGAGTCACCTAGTGCAG”: the binding signal is 18200 fluorescence intensity (a.u.).
